Test results published in article PMC4336329 (PLoS ONE, 2015).
Hit rate of the full screen: of about 310,000 compounds, about 14,000 (4.5%) showed an effect of 50% or more. The effect is printed as a negative number. The list shows a part of the results.

Biological target: human ether-à-go-go-related gene (hERG) potassium channel (human, UniProt Q12809)
Assay: primary screen, population patch clamp on CHO cells stably expressing hERG
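Further: peak tail current of the secondary pulse compared with the same well before compound.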

human ether-à-go-go-related gene (hERG) potassium channel, sequence (Q12809 whole entry, looked up): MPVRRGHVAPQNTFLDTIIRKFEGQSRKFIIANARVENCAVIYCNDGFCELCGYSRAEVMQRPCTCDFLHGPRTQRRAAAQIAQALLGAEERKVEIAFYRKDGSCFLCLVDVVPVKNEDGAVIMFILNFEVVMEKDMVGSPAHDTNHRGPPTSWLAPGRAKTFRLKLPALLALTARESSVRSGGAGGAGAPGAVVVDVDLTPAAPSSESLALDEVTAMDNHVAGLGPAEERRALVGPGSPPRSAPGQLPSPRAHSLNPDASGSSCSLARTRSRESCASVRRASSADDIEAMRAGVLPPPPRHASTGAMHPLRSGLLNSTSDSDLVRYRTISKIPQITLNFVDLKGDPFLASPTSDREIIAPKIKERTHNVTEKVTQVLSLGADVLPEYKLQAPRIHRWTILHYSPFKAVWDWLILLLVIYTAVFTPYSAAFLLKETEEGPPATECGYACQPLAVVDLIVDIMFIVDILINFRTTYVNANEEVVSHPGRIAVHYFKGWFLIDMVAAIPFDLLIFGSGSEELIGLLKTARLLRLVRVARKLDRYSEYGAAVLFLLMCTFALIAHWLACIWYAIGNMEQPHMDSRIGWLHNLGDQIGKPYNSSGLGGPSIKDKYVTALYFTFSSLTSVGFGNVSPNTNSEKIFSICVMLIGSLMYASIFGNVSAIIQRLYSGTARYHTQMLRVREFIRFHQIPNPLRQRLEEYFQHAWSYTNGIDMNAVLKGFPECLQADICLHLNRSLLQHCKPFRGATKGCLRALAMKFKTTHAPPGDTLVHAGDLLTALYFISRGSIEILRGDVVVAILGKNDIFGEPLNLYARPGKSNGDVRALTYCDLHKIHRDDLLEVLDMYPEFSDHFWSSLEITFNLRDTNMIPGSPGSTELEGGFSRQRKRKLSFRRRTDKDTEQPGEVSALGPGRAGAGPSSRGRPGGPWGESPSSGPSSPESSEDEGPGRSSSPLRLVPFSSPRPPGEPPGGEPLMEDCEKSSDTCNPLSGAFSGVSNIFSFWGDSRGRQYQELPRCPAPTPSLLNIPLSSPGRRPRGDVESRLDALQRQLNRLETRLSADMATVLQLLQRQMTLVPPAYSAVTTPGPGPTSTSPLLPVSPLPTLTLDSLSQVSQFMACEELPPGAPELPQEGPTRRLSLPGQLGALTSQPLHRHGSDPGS

Row | Compound | hERG current change (%, negative = inhibition) at 10uM
1 | N#Cc1ccsc1NC(=O)C1CCN(S(=O)(=O)c2cccs2)CC1 | -20.2%
2 | COc1cc(C2C(C(=O)c3ccc(C)o3)=C(O)C(=O)N2Cc2cccnc2)ccc1O (stereo not drawn) | 10.9%
3 | Cc1ccc(NC(=O)COC(=O)C2CCN(c3ccc(C(F)(F)F)cn3)CC2)cc1 | -1.26%
4 | Br.Cc1ccc(Nc2nc(-c3ccc(S(=O)(=O)N4CCOCC4)cc3)cs2)cc1Cl | 4.43%
5 | CN(Cc1nc(Cc2cccc(F)c2)no1)CC1COCCO1 (stereo not drawn) | 10.7%
6 | CC12CCC(C(=O)Nc3nccs3)(OC1=O)C2(C)C (stereo not drawn) | 6.58%
7 | O=C(c1cccc(N2CCCC2=O)c1)N1CCN(c2ccccc2)CC1 | 10.9%
8 | COc1ccccc1NC(=O)Cc1coc2cc(C)ccc12 | -13.1%
9 | COc1ccc(CCN2CC(C(=O)OCC(=O)NC(C)c3cccc(Cl)c3)CC2=O)cc1OC (stereo not drawn) | -8.25%
10 | COC(=O)c1c(NC(=O)C2CCCCC2C(=O)O)sc2c1CCCCC2 (stereo not drawn) | -10.7%
11 | CCCn1nc(-c2ccccc2)c2nc3ccccc3nc21 | -7.16%
12 | COc1ccc(-c2nc3c(-c4ccccc4)cnn3cc2C)cc1F | 9.32%
13 | COCCn1c(SCC(=O)N2CCCC2)nc2c([nH]c3ccccc32)c1=O | -61.3%
14 | CC(=O)c1sc2ccccc2c1OC(=O)c1ccco1 | 12.6%
15 | O=C(O)CCSc1nnnn1-c1ccccc1 | -1.42%
16 | Nc1ccc(Br)c[n+]1Cc1cccc2cccnc12.[Br-] | -51.6%
17 | CSCCC(NC(=O)c1ccccc1Cl)C(=O)NNC(=O)c1ccccc1O (stereo not drawn) | 8.71%
18 | NC(=O)c1cc([N+](=O)[O-])ccc1NCc1cccc(N)c1 | -5.66%
19 | Cc1cc(Cl)ccc1NC(=O)CN1C(=O)NC2(CCCc3ccccc32)C1=O (stereo not drawn) | -1.38%

Row | Compound | hERG current change (%, negative = inhibition) at 10uM
20 | CCn1ccc(C(=O)Nc2ccc(Cl)cn2)n1 | -18.3%
21 | Nc1nc(-c2cccnc2)nn1C(=O)Cc1ccccc1 | -15%
22 | Cn1cccc1Cc1nnc(SCC(=O)Nc2ccc3c(c2)OCCO3)n1CCc1ccccc1 | -15.8%
23 | Cc1ccc(C(=O)N2CCCC2)cc1Br | 17.9%
24 | Cc1ccc(NC(=O)C(=Cc2ccc(C(=O)O)cc2)C(=O)Nc2ccc(C)cc2C)c(C)c1 | -9.22%
25 | O=C(Nc1sc2c(c1C(=O)O)CCCCC2)c1cccnc1 | 16.7%
26 | Cc1ccc(S(=O)(=O)/C(C#N)=C/c2c(N3CCCCC3)nc3ccccn3c2=O)cc1 | -29.9%
27 | O=C(CSc1nc2ccsc2c(=O)n1Cc1ccccc1)NCc1ccco1 | -20.2%
28 | O=C(Nc1ccc(S(=O)(=O)Nc2nccs2)cc1)c1ccc(F)cc1 | -5.56%
29 | COC(=O)c1cc(C)nc2c1C(=O)C(=O)C=C2N1CCOCC1 | -2.1%
30 | COc1cc(C(=O)OCC(=O)N2CCCC2)cc2c1OCCO2 | 6.01%
31 | COc1ccccc1CNS(=O)(=O)c1ccc(C)cc1 | 7.04%
32 | Cc1cc2occ(CC(=O)N(C)CC(=O)Nc3ccc(F)cc3)c2cc1C | -9.51%
33 | CCOc1cc(NC(=S)NCCCN2CCOCC2)c(OCC)cc1NC(=O)CC(C)C | 6.63%
34 | COc1cc(Cl)ccc1NC(=S)N(CCN1CCOCC1)C1CCN(C(C)=O)CC1 | 5.53%
35 | Cc1cc(S(=O)(=O)N2CCN(c3ccc(F)cc3)CC2)c(C)s1 | -1.39%
36 | O=C(Nc1c(C(=O)C2CC2)oc2ccccc12)c1ccc(Cl)cc1 | 18.7%
37 | S=c1[nH]cnc2scc(-c3ccccc3)c12 | 23.4%
38 | CCN(CC)S(=O)(=O)c1ccc2[nH]c(=O)cc(C(=O)NCc3ccccc3)c2c1 | 12.4%

Row | Compound | hERG current change (%, negative = inhibition) at 10uM
39 | CCC1(c2ccc(F)cc2)NC(=O)N(CC(=O)Nc2ccccc2Cl)C1=O (stereo not drawn) | -0.572%
40 | Cc1ccnc(NC(=O)CCC(=O)N(CC(=O)NC2CCCCC2)CC2CCCO2)c1 (stereo not drawn) | 2.1%
41 | CCN(CC)S(=O)(=O)c1ccc(=O)n(CC(=O)N2CCCc3cc(C)ccc32)c1 | -30.2%
42 | Cc1cc(C(=O)OCC(=O)Nc2ccccc2F)c(C)o1 | 1.27%
43 | Cc1ccc(O)c(NC(=O)C2CCCN2C(=O)OCc2ccccc2)c1 (stereo not drawn) | 8.29%
44 | COC(=O)c1nnn(-c2nonc2N)c1CN1CCc2ccccc21 | 4.57%
45 | Oc1c(Br)cc(/C=N/n2c(-c3ccccc3)n[nH]c2=S)c(Br)c1O | 18.3%
46 | CCCc1ccc(OCC(O)CN2CCc3ccccc3C2)cc1.Cl (stereo not drawn) | -71.5%
47 | O=C(Nc1ccc(F)cc1)Nc1ccccc1F | 19.8%
48 | CCCOc1ccc2cc(C(=O)NCc3ccccc3)c(=O)oc2c1 | 12.3%
49 | CCCNC(=O)C1CCCN(S(=O)(=O)c2ccc3c(c2)CC(C)N3C(=O)C2CC2)C1 (stereo not drawn) | 4.15%
50 | Cc1ccc(Sc2ccc(N)cc2C#N)cc1 | -39%
51 | Cc1cccc(N2CCN(C(=O)c3ccc(CNc4c(N5CCC(C)CC5)c(=O)c4=O)cc3)CC2C)c1 (stereo not drawn) | -10.4%
52 | CCC(C)Sc1nnc(-c2c[nH]c3ccccc23)n1CCOC (stereo not drawn) | -15.4%
53 | S=C(c1ccc(-c2ccc(Cl)c(Cl)c2)o1)N1CCOCC1 | 3.22%
54 | COC(=O)c1ccccc1NC(=O)CNCCc1ccc(OC)c(OC)c1 | -0.891%
55 | COc1cc2ccccc2cc1C(=O)Nc1ccccc1Cl | 19%
56 | CCN(CC)S(=O)(=O)c1ccc(OC(C)C)nc1 | -1.16%
57 | Cc1ccc(S(=O)(=O)N(CC(=O)N(C)C)c2cccc([N+](=O)[O-])c2)cc1 | -18.2%
